PMC12136788
This is one part of the list.

T1: UNK ZnF1-6 (called full-length) (human, UniProt Q9C0B0 30-357)
T1 sequence: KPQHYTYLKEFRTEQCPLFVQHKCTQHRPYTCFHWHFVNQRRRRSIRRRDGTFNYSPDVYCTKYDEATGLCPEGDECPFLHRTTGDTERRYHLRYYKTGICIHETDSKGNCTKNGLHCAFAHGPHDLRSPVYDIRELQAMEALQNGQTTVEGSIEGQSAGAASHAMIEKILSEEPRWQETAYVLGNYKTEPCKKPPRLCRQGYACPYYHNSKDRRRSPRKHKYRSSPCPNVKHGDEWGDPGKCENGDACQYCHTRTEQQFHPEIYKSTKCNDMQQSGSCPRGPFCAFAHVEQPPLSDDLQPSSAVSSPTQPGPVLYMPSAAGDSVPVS

B1: ENSG00000170743:stop:overlap|stop_codon|ENSG00000170743|stop_codon|NA|stop_codon (ssRNA)
RNA: GGGAGUUCUACAGUCCGACGAUCAUUUCCCCAGGGAGUGCAUCCUUUGGAAGGAUAUCGAAUAUGUCACCAAUAUUCUUAGCUAGCCCCUAAGAGACAGCAGGUGUUAUCUGUCCUCCGUACCACAUUUUCUUUAGAGCUUUUCAACAGAGGAUUGAGCAUCA
B2: chr1:108699644:108699745:+|CDS|ENSG00000134186|unk|total|mutant (ssRNA)
RNA: GGGAGUUCUACAGUCCGACGAUCGAUUCCAAGAAAGAGAAAAAACACAGCCGAAGCAGAAGCAGAGAAAGGAAACACAGAAGCCGGAGUCGAAGCCGAAAUGCAGGGAAACGAAGCCGAAGCCGAAGCAAAGAGAAAUCAAGUCAACAGAGGAUUGAGCAUCA
B3: chr22:41117408:41117517:+|CDS|ENSG00000100393|unk|total|mutant (ssRNA)
RNA: GGGAGUUCUACAGUCCGACGAUCCCAGGUCAAGUCAUGGCCAGCCAGGCCCAACAGAGCAGUCCUGGAUCCGGUUUGAUAAACCGCAUGGUCAAAAGCCCAAUGACACAGGCAGGCUUGACUUCUCCCAACAUGGGGAUGGGCCAACAGAGGAUUGAGCAUCA
B4: chr17:79089344:79090882:-|three_prime_utr|ENSG00000167281|control|control|control (ssRNA)
RNA: GGGAGUUCUACAGUCCGACGAUCAGACAGUGUGGAGCCCAGCGGCGGCGGAGCAGGCCCGGGCCUGAGCAGGCAGGCGCUGCUAGCAAGACUUGAUCUUUGUGGCCAGCUGUGCCAGGGGGCCGGCGGGGCUGAGGGGUGCGGCAACAGAGGAUUGAGCAUCA
B5: chr19:58354356:58356138:-|three_prime_utr|ENSG00000174586|control|control|control (ssRNA)
RNA: GGGAGUUCUACAGUCCGACGAUCUGGGAGUGCAGGGGCGGCCUUGGGUGUGGAGAACCCUGGCUGCACAGUCCCUUUGACGAUAGUCCACCGGCCACCCAGGCCUGUCUGGGGACAUGUAGGAUGGGCUCUUACCCCAGGGAGCAACAGAGGAUUGAGCAUCA
B6: chr1:113128187:113128288:+|3pUTR|ENSG00000198799|unk|total|mutant (ssRNA)
RNA: GGGAGUUCUACAGUCCGACGAUCUCAUACUUAUUUUCAAUCCUAAGUGUUCUCCCAUGGGCAGCAGCACUUCUUGAGCUGUUCCGUACUGCCACACCUUUUUAUGUCUUUACUAUGUCAGCCUCUGAUCAUUUUCACUUUGAACAACAGAGGAUUGAGCAUCA
B7: chr2:219567275:219567376:-|CDS|ENSG00000124006|msi1|FALSE|unique (ssRNA)
RNA: GGGAGUUCUACAGUCCGACGAUCUGUGUGCCCUCCGAGGGUGACUACCGCUUCCGCAUCUGCACAGUCAGCGGACAUGGCCGUAGUCCCCACGUGGUGUUCCACGGUUCUGCUCACCUUGGUGAGUUGGUCCUGCCAGACCCACAACAGAGGAUUGAGCAUCA
B8: chr1:154207159:154207278:-|3pUTR|ENSG00000143612|msi1_unk|FALSE|overlapping (ssRNA)
RNA: GGGAGUUCUACAGUCCGACGAUCUUCCCCAACCCUUCCUUAUGAGCAUUUUUAGAACAUUGGCUAAGACUAUUUUCCCCCAGUAGCGCUUUUUUCUGGAUUUGCAUUCAGGUGUUAUUCUUAAUGUUUCUGUCAAAGCUUCUUCAACAGAGGAUUGAGCAUCA
B9: chr17:2300308:2300409:-|CDS|ENSG00000070366|unk|total|mutant (ssRNA)
RNA: GGGAGUUCUACAGUCCGACGAUCGACCCAGAAAAUAAUCGGGGACAAGAAUCCUUUCCCCGGACUGCUGGACAAGAGGAUCGCCGUCUAAAAAUUAUCAAAAGAACAAAGAAACCCGACCUGCAGAUCUAUCAGCCUGGACGACAACAGAGGAUUGAGCAUCA
B10: chr6:36925443:36925544:+|3pUTR|ENSG00000198663|msi1|FALSE|unique (ssRNA)
RNA: GGGAGUUCUACAGUCCGACGAUCGAGGCAUCCCGUGGGAAAGUCCCCUAAGUCCCAUUUUGUACUUCAACAAAAAAUGACUGUAGCAGAAGAUAAGUGGAGACUUUUAUGGAUAUACUACUCAUUUUACUUAAAAUCUACCCACAACAGAGGAUUGAGCAUCA
B11: ENSG00000023516:stop:overlap|stop_codon|ENSG00000023516|stop_codon|NA|stop_codon (ssRNA)
RNA: GGGAGUUCUACAGUCCGACGAUCAAAAAGCUUCCAGUGAGGAGAGAUGCAAGUCGCUGUUUGAUUGGCUCUUGGAAAAUGCAUAGAGCAAACCCCAAACCAGUAUAUUUUAGUAUUUGUUUGGGGAGGGGAACAAGCCAAUAACAACAGAGGAUUGAGCAUCA
B12: ENSG00000107021:stop:overlap|stop_codon|ENSG00000107021|stop_codon|NA|stop_codon (ssRNA)
RNA: GGGAGUUCUACAGUCCGACGAUCACCCCAUCACAGAUGUCUGCCAGAUCCUGCAGAAAGCCAAGGAGCUCCAAGACUCAAAGUAGCCCGGCGGCAAGAGGCCCAUGUUCCGGAGAGAAGCCUCCCGACCCUGUGCCCUGGCUCCAACAGAGGAUUGAGCAUCA
B13: chr17:15628647:15628976:-|three_prime_utr|ENSG00000221926|control|control|control (ssRNA)
RNA: GGGAGUUCUACAGUCCGACGAUCUUUCCGGAGGCUCGGGGUCUAUAUCGACUUCCCGGGAGGGAUCCUUUCCUUCUAUGGCGUAGAGUAUGAUACCAUGACUCUGGUUCACAAGUUUGCCUGCAAAUUUUCAGAACCAGUCUACAACAGAGGAUUGAGCAUCA
B14: chr3:139561012:139561392:-|CDS|ENSG00000163864|control|control|control (ssRNA)
RNA: GGGAGUUCUACAGUCCGACGAUCGAAGGAUGCGCACAUCCAGGAAAUAGUGGAGAAGUUUGGCUUGGUGUGCGUGGGCCGAGUAGGUCACGACCCAAAAGGUUACAUCGCAGAAUCUCCCAUCCUACGGAUGCACCAGCACAACAACAGAGGAUUGAGCAUCA

molecular target: T1, UNK ZnF1-6 (called full-length); assay: nsRBNS (natural sequence RNA bind-n-seq); RBNS binding buffer (assumed for nsRBNS): 25 mM Tris pH 7.5, 150 mM KCl, 3 mM MgCl2, 0.01% Triton X-100, 500 ug/ml BSA, 20 U/ml SUPERase-In, 4 C; UNK is unkempt and MSI1 is Musashi-1; names of the RNAs are library labels; protein concentration not given here; high values mean tight binding

| Binder | binding signal [enrichment R] |
| --- | --- |
| B1 | 0.579 |
| B2 | 0.594 |
| B3 | 0.718 |
| B4 | 1.09 |
| B5 | 0.849 |
| B6 | 0.612 |
| B7 | 0.57 |
| B8 | 0.832 |
| B9 | 0.757 |
| B10 | 0.663 |
| B11 | 0.794 |
| B12 | 0.545 |
| B13 | 0.489 |
| B14 | 0.654 |
